Measurements taken from the supplement of paper PMC11417369.
Some of the results follow.

Tested on: PfSIP2 AP2 domain 1 (GST-tagged)
Test: gcPBM binding intensity (ln(normalized median fluorescence intensity)); higher = stronger DNA binding
Summary of the method: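 Binding intensity is the highest Masliner-normalised natural-log median intensity over replicate spots in either probe orientation. To obtain it, GST-tagged P. falciparum DNA-binding domains made in E. coli were incubated for 1 h on an Agilent 4 × 180k array of primer-extended double-stranded 36-bp intergenic genomic probes plus negative controls. Detection used Alexa488 anti-GST antibody with scanning at 488 nm.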

| Sequence | gcPBM binding intensity (ln) |
| --- | --- |
| CATATAGCATAATCATGTACACATACAACAAATAGG [XGTACX_site1589] | 7.21 |
| CAACTAATATTAAAACGTACATAAATATTTAACAGA [XGTACX_site625] | 6.98 |
| ATCACATATATATATAATATATATATGTATATATTT [GTGCAC_negctrl_site249] | 6.96 |
| ATATATATATATATATGTACATATATTTTTATTTAT [XGTACX_site3508] | 9.31 |
| AAAAAAAATATATATGCACACACAAAAAAACAAATT [CACACA_site8349] | 8.04 |
| TATACCTTTTTATTCACACATATATGTCATATGTCA [CACACA_site5423] | 7.15 |
| TTAATTACATGTAATTGTACTTAATTATAAGACATT [XGTACX_site464] | 6.93 |
| TATTACTTATAAATTACACACAAATGATTGAACATT [CACACA_site2259] | 6.83 |
| TTAAAATAAAGAAAATGTACATAAATAAAAATAAAG [XGTACX_site2280] | 7.78 |
| TTTTACCTAAATATCACACATATTTAAATATATATA [CACACA_site5597] | 7.2 |
| ATTATACCACCCGATATACACACTTGTAGACATCTT [CACACA_site7944] | 6.98 |
| AAAAAAAAATACATATGTACTTATGTATAATGTTGT [XGTACX_site8104] | 7.14 |
| TTTTTTTAATTAGTTTGTACATATTGTTATAATATA [XGTACX_site6294] | 6.85 |
| CATGTTATGATTCCATGTACTTATAGCATTAAAAAA [XGTACX_site8939] | 6.98 |
| ATAAAAAGGAGACACACACACACACGCATATTTATA [CACACA_site6551] | 7.08 |
| TATATTAAACCATGTAGTACCTTGAATAAATATTAT [XGTACX_site8254] | 7 |
| AACATATATATATATACATGCATATGAACAACGAAT [TGCATGCA_site93] | 7.35 |
| TATAAAAATGTTTACACACACACATAAATATATTTT [CACACA_site2512] | 7.1 |
| TTTTTTTTTTTTCTGAGTACGAAAAATAGAGATAGA [XGTACX_site3825] | 7.48 |
| TGTATAAATATAATCACACATATATATATATATATA [CACACA_site4365] | 9.45 |
| AAGTTACAAAATCAAAAGGAAAAAATATAAAATAAT [CACACA_negctrl_site561] | 6.84 |
| CAAGAAAATTGACACACACACATATTTATATTTATA [CACACA_site7766] | 6.95 |

| Sequence | gcPBM binding intensity (ln) |
| --- | --- |
| AAATTAAATGTAAGCACACATAAATTATACTCATAT [CACACA_site5782] | 6.82 |
| ACTTATACAAAATGTGCATGTTATATTTACAATAAT [TGCATGCA_site108] | 7.85 |
| GGAATAGTAATATATACACACAAATACATATATATA [CACACA_site67] | 7.65 |
| TTTATTTTTTAATGATGTACTATTTATCCAGAAAAG [XGTACX_site7750] | 7.42 |
| ATAAGCTCATGCAGGTGTACACAAAAAGAAAAAAAA [XGTACX_site2433] | 7.55 |
| ATAATGAAAAGGAACATACACACCCCATATAAATAT [CACACA_site3442] | 7.16 |
| TCTGTATATTATTCAAGTACACAATATAAATATAAA [XGTACX_site7241] | 7.22 |
| AAAAAATTCAAAAGGTGTACAACATTATATTATTCC [XGTACX_site5118] | 6.94 |
| TATTGTTTTTTTTACTGTACACAAGTAAATGAAAAA [XGTACX_site790] | 7.47 |
| GTATATAATTAAAGTTGTACCCTTAAAAAAGGGAAA [XGTACX_site7278] | 6.97 |
| GATAACTTTTTTCTCACACACAAATATTTTAATCAT [CACACA_site7685] | 7.38 |
| GAACAAATTAAATAGGTGCATTAACATGTTCTATTT [GTGCAC_site9729] | 10.4 |
| AAAAATAAAAAAATAAATACGTATACATATATAATA [TGCATGCA_negctrl_site551] | 6.81 |
| TATAATTATATGTATACACACACATACATTTACATA [CACACA_site9061] | 7.27 |
| AAAATGAAAATGAAAATGAAAATGGGAAAATGTCAA [TGCATGCA_negctrl_site488] | 6.98 |
| TTATATATAAGTTTATTCATTTTTTTTTTTTTTTTT [XGTACX_negctrl_site573] | 7.62 |
| TAAATAAAAAAGAATACACACAGCATGCATAAATAT [CACACA_site237] | 7.11 |
| CATATATATCGTAATGCACACATGTAATTTCATAAT [CACACA_site811] | 7.35 |
| TAACACCAAACTAAATGTACACACATACATAAATAT [XGTACX_site2201] | 7.33 |
| TAAATGTGAACAATAGAAGTAATAAGAAGAATAAAA [CACACA_negctrl_site1080] | 6.97 |
| TTTATTTTTTGTGGCACACAGAAGAAACAAGAACAA [CACACA_site1696] | 7.78 |
| AATGAATAATTATTTTGTACATAATATTATATTTAT [XGTACX_site5350] | 6.94 |
